Measured values published in the supplement of paper PMC9135407.
“And” between values parts separate entries of the source, which are not always exact repeats. Identical values can stand only once. Counter-ions that a name gives are not always drawn. Out of some 5,800 compounds screened, about 620 (11%) showed activity.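 How the source made its calls: active = score above a cut-off or among the top three wells of a plate; in these data no inactive exceeds 0.85.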 The list shows a part of the results, in another mix than the full data.

Test system: primary human hepatic stellate cells (donor 1)
Experiment: scaled lipid accumulation score (0 = DMSO-like, 1 = nortriptyline-like); higher = stronger HSC inactivation (lipid re-accumulation), active = hit call of the paper
Settings: 48 h
[1] = library stock concentration: 10 mM
[2] = library stock concentration: 3.33 mM
[3] = library stock concentration: 1 mM

## S=C=Nc1cccc(C2(N3CCCCC3)CCCCC2)c1 [Metaphit]
[1]
  scaled lipid accumulation score: active: 0.949

## FC(F)(F)c1cccc(C2=CCN(CCc3ccc4ccccc4c3)CC2)c1 [Xaliproden hydrochloride]
[1]
  scaled lipid accumulation score: inactive: 0.229

## CC1(C)[C@@H](O)C[C@H]2[C@](C)(O)[C@@H]3CC[C@@H]4[C@@H](O)[C@@]3(C[C@@H](O)[C@@]21O)C[C@@]4(C)O [Grayanotoxin III]
Library stock concentration: 13.5 mM
  scaled lipid accumulation score: inactive: ≤ -0.021

## Nc1ccc([As](=O)(O)O)cc1 [Arsanilic acid]
Library stock concentration: 9.2 mM
  scaled lipid accumulation score: inactive: 0.028

## O=c1[nH]c2ccc(Cl)cc2c(N[C@@H]2CN3CCC2CC3)c1-c1nc2ccccc2[nH]1
[2]
  scaled lipid accumulation score: inactive: 0.158
[1]
  scaled lipid accumulation score: inactive: 0.485

## c1cc(N2CCNCC2)c2cnccc2c1 [8-piperazin-1-yl-Isoquinoline (hydrochloride)]
[3]
  scaled lipid accumulation score: inactive: 0.005

## CCCCCCCC/C=C\CCCCCCCC(=O)N[C@H](C)CO
[3]
  scaled lipid accumulation score: inactive: 0.021

## COP(=S)(OC)Oc1cc(Cl)c(Cl)cc1Cl [Ronnel]
Library stock concentration: 6.2 mM
  scaled lipid accumulation score: inactive: ≤ 0

## NCCc1c[nH]c2ccc(C(N)=O)cc12 [5-Carboxamidotryptamine maleate]
[1]
  scaled lipid accumulation score: inactive: ≤ -0.07 and inactive: 0.054

## N#CC(C#N)=Cc1ccc([N+](=O)[O-])c(O)c1
[3]
  scaled lipid accumulation score: inactive: ≤ 0

## N#CC(C#N)=Cc1ccc([N+](=O)[O-])c(O)c1 [Tyrphostin AG-126]
Library stock concentration: 23.2 mM
  scaled lipid accumulation score: inactive: ≤ -0.012

## CCN(CC)C(=O)c1ccc(C2=CC3(CCNCC3)Oc3cccc(O)c32)cc1
[2]
  scaled lipid accumulation score: inactive: ≤ 0
[1]
  scaled lipid accumulation score: inactive: 0.271

## CC[C@H]1CN2CCc3cc(OC)c(OC)cc3[C@@H]2C[C@@H]1C[C@H]1NCCc2cc(OC)c(OC)cc21.Cl.Cl [Emetine dihydrochloride]
  scaled lipid accumulation score: active: 0.98

## O=S1(=O)N(CCN2CC=C(c3c[nH]c4cc(F)ccc34)CC2)c2cccc3c2N1CCC3
[1]
  scaled lipid accumulation score: inactive: 0.128

## Clc1ccc(N2CCN(Cc3c[nH]c4ncccc34)CC2)cc1 [L-745,870 trihydrochloride]
[1]
  scaled lipid accumulation score: inactive: 0.37

## CN=C(NS(=O)(=O)c1ccc(Cl)cc1)N1CC(c2ccccc2)C(c2ccc(Cl)cc2)=N1 (centres undefined)
[3]
  scaled lipid accumulation score: inactive: ≤ 0

## O=[N+]([O-])c1ccc(O)c([N+](=O)[O-])c1 [2,4-dinitrophenol]
[1]
  scaled lipid accumulation score: inactive: ≤ 0

## CC1OC(OC2/C=C/C=C/C=C/C=C/CC/C=C/C=C/[C@H](C)[C@@H](O)[C@@H](C)[C@H](C)OC(=O)CC(O)CC(O)CC(O)CCC(O)C(O)C[C@]3(O)CC(O)C(C(=O)O)C(C2)O3)C(O)C(N)C1O (some centres undefined) [Nystatine]
  scaled lipid accumulation score: inactive: ≤ 0

## CN1CCN(c2ccc3ccccc3n2)CC1 [N-Methylquipazine dimaleate]
[1]
  scaled lipid accumulation score: inactive: 0.327

## NCCCNCCSP(=O)(O)O [Amifostine]
Library stock concentration: 9.3 mM
  scaled lipid accumulation score: inactive: ≤ 0
[1]
  scaled lipid accumulation score: inactive: ≤ 0

## CCC(=O)O[C@H]1CC[C@H]2[C@@H]3CCC4=CC(=O)CC[C@]4(C)[C@H]3CC[C@]12C [Testosterone propionate]
  scaled lipid accumulation score: inactive: ≤ 0
Library stock concentration: 5.8 mM
  scaled lipid accumulation score: inactive: 0.578
[1]
  scaled lipid accumulation score: inactive: 0.536

## CC([C@H](O)c1ccccc1)N(C)C (some centres undefined)
[1]
  scaled lipid accumulation score: inactive: 0.129

## CCOc1cncc(/C=C/CCNC)c1 [TC 2559 difumarate]
[1]
  scaled lipid accumulation score: inactive: ≤ -0.001

## COc1ccc(OC)c(C(O)C(C)N)c1 (centres undefined) [Methoxamine hydrochloride]
  scaled lipid accumulation score: inactive: ≤ 0
Library stock concentration: 8.1 mM
  scaled lipid accumulation score: inactive: 0.032
[1]
  scaled lipid accumulation score: inactive: ≤ 0 and inactive: ≤ -0.055

## Ic1cncc(OC[C@@H]2CCN2)c1
[1]
  scaled lipid accumulation score: inactive: ≤ -0.006

## Cc1sc2c(c1C)C(c1ccc(Cl)cc1)=N[C@@H](CC(=O)OC(C)(C)C)c1nnc(C)n1-2
Library stock concentration: 80 uM
  scaled lipid accumulation score: inactive: ≤ 0
Library stock concentration: 400 uM
  scaled lipid accumulation score: inactive: ≤ 0
Library stock concentration: 2 mM
  scaled lipid accumulation score: inactive: ≤ 0
[2]
  scaled lipid accumulation score: inactive: ≤ -0.009
[1]
  scaled lipid accumulation score: inactive: 0.034 and inactive: ≤ 0

## COC(=O)[C@]1(O)C[C@@H]2O[C@@]1(C)n1c3ccccc3c3c4c(c5c6ccccc6n2c5c31)C(=O)NC4 [K-252a, Nocardiopsis sp.]
[2]
  scaled lipid accumulation score: inactive: 0.362

## C=CCN1CC[C@]2(C)c3cc(O)ccc3C[C@H]1C2C (single isomer, unassigned; (+))
[1]
  scaled lipid accumulation score: inactive: 0.02

## CN1C2CC(=O)CC1C(O)C2 (centres undefined) [6-Hydroxytropinone]
  scaled lipid accumulation score: inactive: ≤ 0

## C[C@@H]1CC[C@]2(NC1)O[C@H]1C[C@H]3[C@@H]4CC=C5C[C@@H](O)CC[C@]5(C)[C@H]4CC[C@]3(C)[C@H]1[C@@H]2C [Solasodine]
  scaled lipid accumulation score: inactive: ≤ 0
[1]
  scaled lipid accumulation score: inactive: ≤ -0.027

## O=C(CCCN1CCC(n2c(=O)[nH]c3ccccc32)CC1)c1ccc(F)cc1 [Benperidol]
  scaled lipid accumulation score: inactive: 0.202

## O=C1CCO1 [Beta-propiolactone]
[1]
  scaled lipid accumulation score: inactive: ≤ -0.027
Library stock concentration: 27.8 mM
  scaled lipid accumulation score: inactive: ≤ 0

## CCC(Oc1ccc(Cl)cc1)C(=O)OC1CC2CCC(C1)N2C.O=C(O)/C=C\C(=O)O (centres undefined) [SM-21 maleate]
[1]
  scaled lipid accumulation score: active: 0.886

## C[C@]12CC[C@H](O)C[C@H]1CC[C@@H]1[C@@H]2CC[C@]2(C)[C@@H](C3=CC(=O)OC3)CC[C@]12O [Digitoxigenin]
  scaled lipid accumulation score: active: 0.936

## O=C1C2CCN(CC2)C1(CO)CO
[3]
  scaled lipid accumulation score: inactive: ≤ 0
[1]
  scaled lipid accumulation score: inactive: 0.045

## COc1cc2c(cc1O)C[C@H]1c3c(cc(O)c(OC)c3-2)CCN1C [Boldine]
  scaled lipid accumulation score: inactive: 0.014

## C[C@H]1CC[C@]2(NC1)O[C@H]1C[C@H]3[C@@H]4CC[C@H]5C[C@@H](O[C@@H]6O[C@H](CO)[C@H](O[C@@H]7O[C@H](CO)[C@@H](O)[C@H](O[C@@H]8OC[C@@H](O)[C@H](O)[C@H]8O)[C@H]7O[C@@H]7O[C@H](CO)[C@@H](O)[C@H](O)[C@H]7O)[C@H](O)[C@H]6O)CC[C@]5(C)[C@H]4CC[C@]3(C)[C@H]1[C@@H]2C [Tomatine]
  scaled lipid accumulation score: inactive: 0.319

## COc1ccc(C(=O)OC2C[C@H]3CC[C@@H](C2)N3C)cc1OC (some centres undefined) [Convolamine hydrochloride]
  scaled lipid accumulation score: inactive: 0.027

## CCc1cc2c(s1)-n1c(C)nnc1CN=C2c1ccccc1Cl [Etizolam]
[2]
  scaled lipid accumulation score: inactive: ≤ 0
[1]
  scaled lipid accumulation score: inactive: ≤ -0.001
